The whole screen tested about 340,000 compounds, of which about 6,900 (2%) were called active. Rule as the data show it: active = inhibition above about 30%; inactive = below that, where a call was filed. The list shows a part of the results, in another mix than the full data. Where no call is shown, the source filed none.

In the experiment the target is D(2) dopamine receptor (Homo sapiens) (UniProt P14416). The experiment can be described thus: HTS Assay for Allosteric Antagonists of the Human D2 Dopamine Receptor: Primary Screen for Antagonists. Also: 0% is about no effect. The settings on record: HEK293 TREx D2 cells, calcium flux, dopamine EC80; at 10 µM; stronger effect = higher value. In short, it runs like this: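 Cells plated overnight at 30 C with tetracycline; no-wash calcium dye, 30–90 min RT; 10 s baseline; compound pinned; 180 s read; EC80 dopamine added; another 180 s read.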
UniProt P14416, sequence (P14416 whole entry, looked up): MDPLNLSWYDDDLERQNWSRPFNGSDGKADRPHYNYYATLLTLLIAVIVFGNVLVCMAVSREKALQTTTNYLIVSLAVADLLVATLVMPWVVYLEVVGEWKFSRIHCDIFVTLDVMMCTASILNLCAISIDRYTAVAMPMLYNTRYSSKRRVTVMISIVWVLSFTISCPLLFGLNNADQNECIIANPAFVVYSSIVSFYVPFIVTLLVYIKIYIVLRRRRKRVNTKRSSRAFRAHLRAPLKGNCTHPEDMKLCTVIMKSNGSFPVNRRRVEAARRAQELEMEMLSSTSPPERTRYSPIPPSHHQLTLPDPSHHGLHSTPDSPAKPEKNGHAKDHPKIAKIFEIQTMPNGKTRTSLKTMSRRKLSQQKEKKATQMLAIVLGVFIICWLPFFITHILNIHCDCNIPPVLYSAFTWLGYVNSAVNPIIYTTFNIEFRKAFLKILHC
For the molecule `Cc1c(C(=O)N2CCCC2)oc2c1-c1nn(CC(=O)NCc3cccc(F)c3)cc1CC2`, the inhibition is -3.33%.
Take `O=C(CCc1nc2cccnc2n1Cc1ccccc1)NCc1cccc(Cl)c1`: the inhibition is -8.82%.
In the case of `OCc1cnc(SCc2cccc(F)c2)n1Cc1ccc(F)cc1` it was -7.12%.
Turning to `O=C(Nc1cccc(Cl)c1)c1ccc2nc(Cc3ccccc3)oc2c1`, the inhibition was -23.9%.
Consider `COc1cc(OC)c(NC(=O)C2=C(C)C(=O)OC23CCCCC3)cc1Cl`, for which the inhibition is -7.23%.
Regarding `COc1ccccc1CNC(=O)c1cc(Sc2cccc(Cl)c2)nc2ccccc12`, the inhibition is 16.7%.
Regarding `CCc1ccc(C(=O)c2cnc3ccc(C)cc3c2S(=O)(=O)c2ccc(OC)cc2)cc1`, the inhibition is -13.6%.
Turning to `CCCCc1ccc(C(=O)Nc2ccc3nc(N(CC)CC)cc(C)c3c2)cc1`, the inhibition was -4.92%.
Take `COc1ccc2cc(CNc3ccc(C)cc3)c(=O)n(CC(=O)Nc3ccc(OC)c(Cl)c3)c2c1`: the inhibition turned out to be 9.07%.
The result for `O=C(CCCn1c(=O)c2sccc2n(Cc2ccc(F)cc2Cl)c1=O)NCc1ccc2c(c1)OCO2` reads 22.3%; that for `COC(=O)c1ccccc1NC(=O)c1ccc2c(c1)CCN2S(=O)(=O)c1ccc(C)cc1`, -21.3%; that for `O=c1cc(-c2ccccc2)n2c(SCc3ccc([N+](=O)[O-])cc3)nnc2[nH]1`, -18.5%.
The result for `CC1=C(C(N)=O)C(c2cccc(F)c2)n2nc(SCc3ccccc3)nc2N1` (configuration not stated) reads 3.84%; that for `Cc1ccccc1CN(C)CC(=O)Nc1ccccc1Oc1ccccc1`, active: 42.8%; that for `O=C(O)Cn1nc(N2CCN(c3ccc(F)cc3)CC2)ccc1=O`, 11.6%.
The result for `CCCCN(C)C(=O)CN1C(=O)CCn2nc(-c3cn(C)c4ccccc34)cc21` reads -1.58%.
With `COc1ccc(-c2nc(CCNC(=O)c3cccs3)cs2)cc1OC`, the inhibition was found to be 12.5%.
The result for `COc1cccc(CCNC(=O)c2c(O)nc3cc(C)ccn3c2=O)c1` reads -7.53%; that for `COCCCNC(=O)Nc1cc(C(=O)NCc2ccc(OC)cc2)ccc1N1CCCC1`, -8.39%; that for `COc1cc2cc(CNc3ccc(C)cc3)c(=O)n(CC(=O)Nc3ccc(C(C)C)cc3)c2cc1OC`, -11.9%.
The result for `CN(C)c1ccc(CNC(=O)CCC(=O)N2Cc3ccccc3Oc3ncccc32)cc1` reads 14.2%; that for `COc1ccccc1NC(=O)c1ccccc1NC(=O)c1ccccc1`, 8.52%.
For the molecule `COc1ccc(NC(=O)CSc2nc(-c3ccc(OC)cc3)[nH]c2-c2ccc(F)cc2)cc1`, the inhibition was found to be 28.1%.
For the molecule `Cc1ccc(CN(C(=O)COc2ccc(C(C)(C)C)cc2)C2CCS(=O)(=O)C2)o1` (configuration not stated), the inhibition was -1.71%.
For the molecule `COCCc1nn2c(=O)cc(COC(=O)c3cccs3)nc2s1`, the inhibition was -5.46%.
As for `CCOc1ccccc1NC(=O)CN(CCc1ccccc1)S(=O)(=O)c1ccc(C)cc1`, the inhibition was 7.62%.
In the case of `Cn1nnc2c(N3CCCCC3)ncnc21`, the inhibition was -8.37%.
In the case of `CCc1cccc(C)c1NC(=O)CN1C(=O)c2c(c3ccccc3n2C)C1c1ccc(OC)cc1` (configuration not stated) it was -5.44%.
The result for `Clc1ccc(CNc2nc3ccccc3c3nc(-c4cccnc4)nn23)cc1` reads -9.25%.
In the case of `CCn1ccc2cc(S(=O)(=O)N3CCC(C(=O)NCCc4ccc(SC)cc4)CC3)ccc21` it was 18%; in that of `Cc1ccc(CCNC(=O)c2c(C)oc3ncnc(N4CCOCC4)c23)cc1`, -1.67%; in that of `COc1cccc(CNC(=O)N2CCC(CN3CCC(C)CC3)CC2)c1`, 2.19%.
As for `Cc1ccc(NCc2cccn2-c2nnc(N3CCC(C(=O)NCCc4ccccc4)CC3)s2)cc1`, the inhibition was found to be 0.601%.
With `CCOc1ccc(C(=O)Nc2ccc(-c3nc4cc(C(C)C)ccc4o3)cc2)cc1Cl`, the inhibition is -6.82%.
In the case of `CCc1cccc(NC(=O)c2nc(-c3ccncc3)no2)c1` it was -7.83%; in that of `COc1ccc(C2=NN(CC(=O)NCc3ccccc3Cl)C(=O)CC2)cc1`, -16%.
As for `CCCN(CCC)CCCNC(=O)Cn1cc2c(n1)-c1c(oc(C(=O)N3CCCC3)c1C)CC2`, the inhibition is -0.459%.
In the case of `O=S1(=O)CC(O)C(NCc2ccco2)C1` (configuration not stated) it was active: 33.9%.
Regarding `COc1cccc(C(=O)c2cn(CC(=O)NCCc3ccccc3)c3nc(C)ccc3c2=O)c1`, the inhibition stood at 1.28%.
Turning to `CCOC(=O)N1CCc2c(sc3c2C(=O)NC(c2cc(OC)c(O)c(OC)c2)N3)C1` (configuration not stated), the inhibition turned out to be 1.43%.
As for `COc1cccc(NC(=O)Cn2c(=O)n(CCc3ccccc3)c(=O)c3c4c(sc32)CN(C(C)=O)CC4)c1`, the inhibition stood at 0.782%.
The result for `Cc1ccc(C(=O)c2oc3ccccc3c2NC(=O)COc2ccccc2Cl)cc1` reads 4.75%.
The result for `Cc1cc(C)n(-c2nc3ccccc3nc2N2CCN(c3cccc(C)c3C)CC2)n1` reads 9.87%; that for `CCOc1ccc(NC(=O)NCc2ccc3c(c2)CCN3C(C)=O)cc1`, 1.88%; that for `CCOC(=O)c1cc2c(=O)n3ccccc3nc2n(CC2CCCO2)c1=NC(=O)c1ccc(OC)cc1OC` (configuration not stated), -9.3%.
The result for `CCOc1ccc(-n2c(CC)nc3c(cnn3-c3ccc(Cl)cc3)c2=O)cc1` reads 8.03%.
On to `COc1ccccc1/C=C/C(=O)Nc1ccc2c(c1)OCCO2`, for which the inhibition was active: 34.4%.
In the case of `COc1ccc(-c2nc3c4ccccc4n(CC(=O)N4CCN(c5ccc(F)cc5)CC4)c(=O)n3n2)cc1` it was 8.92%; in that of `Cc1ccc(NC(=O)Cn2ccsc2=N)cc1S(=O)(=O)N(C)C`, active: 35.5%; in that of `Cc1oc(-c2cccc(Cl)c2)nc1CN1CCCC(C(=O)N2CCN(c3ccc(F)cc3)CC2)C1` (configuration not stated), -23%.
The result for `COc1c(Cl)cc(C(=O)N(Cc2ccc(C)o2)C2CCS(=O)(=O)C2)cc1Cl` (configuration not stated) reads 13.3%.
Consider `Cc1cccc(Cn2c(C)c(CNC3CCCCCC3)c(C(=O)O)c2C)c1`, for which the inhibition is -16%.
In the case of `O=C(Cn1c(=O)c2ccccc2n(CC(=O)Nc2ccc(F)cc2)c1=O)NCCc1ccccc1`, the inhibition is 1.4%.
On to `CCCCCC(=O)Nc1ccc(NC(=O)c2cc3ccccc3o2)c(OC)c1`, for which the inhibition is 0.639%.
Turning to `COc1cccc(CNC(=O)C2(c3cccs3)CCOCC2)c1`, the inhibition came to 11.9%.
The result for `Cc1oc2ccc(O)c(CN3CCN(C)CC3)c2c1C(=O)Nc1cccc(C(F)(F)F)c1` reads -2.32%; that for `CCOC(=O)c1c(NC(=O)CSc2cn(CCNC(=O)c3ccccc3OC)c3ccccc23)sc2c1CCC2`, 5.45%; that for `CN1CC2=Cc3ccccc3OC23Oc2ccccc2C=C3C1`, active: 64.2%.
In the case of `CC(C)c1nc2n(n1)C1(CCCCC1)[C@@H]1CCCC[C@@H]1N2` it was 10.2%; in that of `Cc1c(CNC2CCCCC2)c(C(=O)O)c(C)n1Cc1ccc(F)cc1`, -0.336%; in that of `CCOc1ccc(C(=O)Nc2ccc(-n3nncc3-c3ccccc3)cc2)cc1OCC`, -15.3%.
In the case of `CCN(C(=O)c1cc2c(=O)n3cccc(C)c3nc2s1)c1ccc(C)c(C)c1` it was -21.1%.

(Values after PubChem BioAssay AID485344 (National Center for Advancing Translational Sciences (NCATS), 2010).)
